{"source": "ChEMBL document CHEMBL4888484", "about": "“Replenishing the malaria drug discovery pipeline: Screening and hit evaluation of the MMV Hit Generation Library 1 (HGL1) against asexual blood stage Plasmodium falciparum ,using a nano luciferase reporter read-out” (2022)", "note": "In all, about 150,000 compounds went through this assay and about 540 (0.36%) showed an effect of 50% or more. Some of the results follow."}
{"tested_on": "Plasmodium falciparum", "assay": "Primary screen in NF54 nanoGlo assay, in single point, at 2uM, 72h; a lower Z score goes with more inhibition", "assay_type": "functional, Erythrocyte", "details": "timepoint 72 hour", "units": {"% Inhibition": "%"}}
{"smiles": "CCC[C@@H](C(=O)NCCc1ccccn1)n1c(Cc2ccc(Cl)cc2Cl)nc2ccccc21", "% Inhibition": -3, "Z score": 0.38}
{"smiles": "CC(C)c1cc(N(C)CC(=O)Nc2nnc(-c3ccco3)o2)n[nH]1", "% Inhibition": -2, "Z score": 0.27}
{"smiles": "Nc1ccc(C2CC(=O)NC(=O)C2)cc1", "% Inhibition": -8, "Z score": 1.57}
{"smiles": "COc1ccccc1CC(=O)NCc1cc(C2CC2)ncn1", "% Inhibition": 14, "Z score": -1.82}
{"smiles": "COc1cc(NC(=O)c2ccoc2)c(OC)cc1NC(=O)c1ccccc1", "% Inhibition": -20, "Z score": 2.69}
{"smiles": "Cc1cc(S(=O)(=O)[C@H]2CS(=O)(=O)C[C@@H]2N2CCC3(CC2)OCCO3)ccc1F", "% Inhibition": -4, "Z score": 0.46}
{"smiles": "COc1nccnc1N(C(C)=O)S(=O)(=O)c1ccc(NC(C)=O)cc1", "% Inhibition": 36, "Z score": -4.59}
{"smiles": "NC(=O)Cc1ccc(NC(=O)c2ccc(N3CCCC3)c(F)c2)cc1", "% Inhibition": -7, "Z score": 0.92}
{"smiles": "COC[C@]1(O)CCOC2(CCN(C(=O)C3CCCCC3)CC2)C1", "% Inhibition": -26, "Z score": 3.84}
{"smiles": "O=C1CCN(C(=O)COc2ccc(-c3ccccc3)cc2Cl)CCN1", "% Inhibition": 38, "Z score": -4.32}
{"smiles": "O=C(c1ccco1)N1CC[C@@H]2COCCN(Cc3ccncc3)[C@@H]2C1", "% Inhibition": -15, "Z score": 1.98}
{"smiles": "NC(=O)c1ccc(NC(=O)c2cc3c(s2)CCCCCC3)cc1", "% Inhibition": 5, "Z score": -0.73}
{"smiles": "FC(F)(F)c1csc(NCc2c[nH]nn2)n1", "% Inhibition": -12, "Z score": 1.46}
{"smiles": "Cc1cc(C)nc(Nc2ccc(O)c(C(=O)N3CCC[C@H](F)C3)c2)n1", "% Inhibition": 0, "Z score": -0.03}
{"smiles": "COc1ccc(CC(=O)Nc2ccc3ncnc(N4CCCCC4)c3c2)cc1Cl", "% Inhibition": -16, "Z score": 1.53}
{"smiles": "COc1ccccc1COc1ccc(-c2noc(-c3ccc(F)cc3)n2)cc1OC", "% Inhibition": -7, "Z score": 0.84}
{"smiles": "O=C(CN(C[C@H]1CCCO1)C(=O)c1ccc(Cl)cc1)Nc1nc(-c2ccc(Cl)cc2)cn1-c1cccc(Cl)c1", "% Inhibition": -1, "Z score": 0.18}
{"smiles": "Cc1ccccc1Cc1nc(CNc2cccc(N3CCOC3=O)c2C)no1", "% Inhibition": -11, "Z score": 1.56}
{"smiles": "Cc1ccc(S(=O)(=O)NCc2ccco2)cc1C(=O)N[C@@H](C)c1ccc2c(c1)OCCO2", "% Inhibition": 0, "Z score": -0.05}
{"smiles": "Cc1noc(C)c1C(=O)NC[C@H](O)c1ccc(-c2ccco2)cc1", "% Inhibition": 0, "Z score": 0.01}
{"smiles": "CC(C)S(=O)(=O)c1cccc(C(=O)Nc2onc3c2CCC3)c1", "% Inhibition": 6, "Z score": -0.88}
{"smiles": "O=C(CN1CC[C@@](F)(c2cc(F)cc(F)c2)C1)Nc1cccnn1", "% Inhibition": -1, "Z score": 0.1}
{"smiles": "CC(C)Cc1ncc2c(n1)CN(c1ncccc1C(N)=O)C2", "% Inhibition": -3, "Z score": 0.43}
{"smiles": "CCS(=O)(=O)N1C[C@@H]2CN(C(=O)c3ccn(C)n3)C[C@]2(c2nc(C)no2)C1", "% Inhibition": -11, "Z score": 1.42}
{"smiles": "O=C(Nc1ccc2c(c1)C(=O)NCC2)Nc1ccccc1C(F)(F)F", "% Inhibition": -7, "Z score": 1.09}
{"smiles": "O=C1C[C@H](NC2CCN(c3ccc4c(c3)CCC4)CC2)CN1Cc1ccccc1", "% Inhibition": -7, "Z score": 1.5}
{"smiles": "Cc1cc(C)c2[nH]c(C(=O)N3CCC(c4nnn[nH]4)CC3)c(C)c2c1", "% Inhibition": 8, "Z score": -1.26}
{"smiles": "Cc1nc(Nc2ccccc2)nc(Nc2ccccc2)c1NC(=O)c1ccc(F)cc1", "% Inhibition": 0, "Z score": 0.07}
{"smiles": "CCc1cc(C(=O)NC[C@H](C)C(=O)O)oc1CC", "% Inhibition": -2, "Z score": 0.46}
{"smiles": "Cc1ccccc1OC[C@H](O)C(=O)N(Cc1ccncc1)C1CCCCC1", "% Inhibition": -8, "Z score": 0.98}
{"smiles": "O=C(CCN1CCCCO1)NC[C@@H]1C[C@@H]2C=C[C@@H]1C21CC1", "% Inhibition": 3, "Z score": -0.36}
{"smiles": "CC1CC(NC(=O)OC(C)(C)C)CCN1Cc1cccc2cn[nH]c12", "note": "(centres undefined)", "% Inhibition": 3, "Z score": -0.28}
{"smiles": "Cc1nccn1CCN(C)Cc1nccn1C1CC1", "% Inhibition": 3, "Z score": -0.33}
{"smiles": "O=C(c1onc2c1CCCC2)N1C[C@@H]2CC[C@H]1CN(Cc1cscn1)C2", "% Inhibition": -11, "Z score": 1.11}
{"smiles": "Nc1nc(CNC(=O)c2cc(-n3cccn3)ccc2Cl)cs1", "% Inhibition": -1, "Z score": 0.17}
{"smiles": "COC[C@H](C)n1ccc(NC(=O)N2CCC(c3c[nH]cn3)CC2)n1", "% Inhibition": 12, "Z score": -1.51}
{"smiles": "Cn1ccc(NC(=O)CN2CCCn3nc(CO)cc3C2)n1", "% Inhibition": -8, "Z score": 1.26}
{"smiles": "O=C(NCc1ccccc1F)c1cn(C2CCCCC2)c(=O)c2nnsc12", "% Inhibition": 34, "Z score": -3.79}
{"smiles": "CCCNS(=O)(=O)c1ccc(NC(=O)N2CCNC(=O)[C@@H]2CC)cc1", "% Inhibition": 2, "Z score": -0.31}
{"smiles": "O=C(CC1CCCCC1)N(Cc1ccc(F)cc1Cl)Cc1c[nH]c2ccc(F)cc12", "% Inhibition": -9, "Z score": 1.56}
{"smiles": "CO[C@H](C(=O)Nc1ccc2c(c1)CCCC(=O)N2)C1CC1", "% Inhibition": -6, "Z score": 0.85}
{"smiles": "C[C@@H](c1ccccc1)n1cnnc1C1CCOCC1", "% Inhibition": 13, "Z score": -2.05}
